Whole data set: some 110,000 compounds, median “z-score” near -0.1, cut for the highest 2% near 2. The list shows a part of the results. Active and inactive are the calls of the source.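 Rule for the calls: active = z-score in the third read window above 3 or below -3; inactive = the rest.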
Each compound was assayed against Metabotropic glutamate receptor 8 (Rattus norvegicus) (UniProt P70579) (assay: mGluR8 Gi/Go-coupled signaling modulation – cell-based, rat, thallium flux, HTS, primary screen (AID 488969)). Conditions: HEK293 rat mGluR8, GIRK (G protein-gated inwardly rectifying potassium channel) thallium flux, FluoZin2; at 10 µM; stronger effect = higher value; submaximal glutamate (EC20) added with thallium.
UniProt P70579, sequence (P70579 whole entry, looked up): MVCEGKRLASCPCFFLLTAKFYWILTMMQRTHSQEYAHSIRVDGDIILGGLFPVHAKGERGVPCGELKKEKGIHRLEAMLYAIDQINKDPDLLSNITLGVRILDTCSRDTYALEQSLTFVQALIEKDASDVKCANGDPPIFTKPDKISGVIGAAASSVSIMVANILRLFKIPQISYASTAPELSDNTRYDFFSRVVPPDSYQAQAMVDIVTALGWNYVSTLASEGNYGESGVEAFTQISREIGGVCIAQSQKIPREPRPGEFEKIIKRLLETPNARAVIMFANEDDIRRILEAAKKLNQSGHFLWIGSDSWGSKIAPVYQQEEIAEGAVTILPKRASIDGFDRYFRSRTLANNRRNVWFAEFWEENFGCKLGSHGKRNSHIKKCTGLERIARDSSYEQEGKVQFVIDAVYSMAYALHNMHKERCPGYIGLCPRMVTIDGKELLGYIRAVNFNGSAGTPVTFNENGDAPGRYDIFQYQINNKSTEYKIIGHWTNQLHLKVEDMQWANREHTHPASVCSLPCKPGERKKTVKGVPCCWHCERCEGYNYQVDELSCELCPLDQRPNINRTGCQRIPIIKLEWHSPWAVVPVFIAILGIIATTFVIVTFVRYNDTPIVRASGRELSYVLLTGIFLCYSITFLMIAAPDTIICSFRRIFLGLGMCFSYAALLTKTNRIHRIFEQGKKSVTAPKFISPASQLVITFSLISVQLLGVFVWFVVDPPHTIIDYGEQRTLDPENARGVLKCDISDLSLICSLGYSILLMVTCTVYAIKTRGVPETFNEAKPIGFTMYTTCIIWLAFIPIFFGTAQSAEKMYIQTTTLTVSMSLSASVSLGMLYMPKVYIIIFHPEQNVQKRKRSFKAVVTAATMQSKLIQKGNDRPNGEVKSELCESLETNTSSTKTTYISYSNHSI
`O=C(CCC(=O)OCC(=O)c1ccccc1)NC1CCCCC1` gave a z-score of -0.0167.
With `O=C(NCCCN1CCCC1=O)c1ccc2c(c1)OCO2` the z-score was 0.0161.
`COc1ccc(CCNC(=O)CNS(=O)(=O)c2ccc(Br)s2)cc1OC` gave a z-score of -0.0435.
`O=C(/C=C/c1ccc(OC(F)F)cc1)OCC(=O)N1CCN(C(=O)c2ccco2)CC1` showed a z-score of 0.082.
Work on `CCc1ccc(NC(=O)N(CCCOC(C)C)C2CCN(C(C)=O)CC2)cc1` yielded a z-score of 0.807.
In the case of `O=C1CC(c2ccco2)CC(O)=C1C=Nc1ccc(Br)cc1` (centres undefined), the z-score is reported as -0.573.
`Cc1csc(NC(=O)C(NS(=O)(=O)c2ccc(Br)s2)c2ccccc2)n1` (centres undefined) was tested, and the z-score was -0.0835.
With `COC(=O)c1cn(-c2ccccc2)c(C)c1C(=O)OC` the z-score was -0.11.
For `Cc1ccc2nc3n(c(=O)c2c1)CCCCC3`, the z-score was 1.65.
`CCOC(=O)CSCc1cn2cc(Cl)ccc2n1` gave a z-score of -0.142.
`Cc1ccc(NS(=O)(=O)c2ccc(N3C(=O)CCC3=O)cc2)cc1` was tested, and the z-score was 0.0614.
With `Cn1c2ccccc2c2c(C(=O)NCC3CCCO3)cn(C3CCCC3)c(=O)c21` (centres undefined) the z-score was -0.721.
With `CCn1c(CSc2nc3ccccc3s2)nnc1SCC(=O)c1ccc(O)c(O)c1` the z-score was 0.00479.
Compound `CCn1cc(Cl)c(C(=O)N2N=C3/C(=C/c4cccs4)CCCC3C2c2cccs2)n1` (centres undefined) has a z-score of -0.241.
Work on `COc1ccc(/C=C2\N=C3CCCCCN3C2=O)cc1OC` yielded a z-score of -0.565.
With `Cc1ccc(CNC(=O)Cn2ccc3ccccc3c2=O)o1` the z-score was 0.188.
`CC(C)CC(NC(=O)c1ccccc1)C(=O)OCC(=O)Nc1ccc(Br)cn1` (centres undefined) was tested, and the z-score was -0.0797.
In the case of `O=C(O)[C@H](Cc1ccccc1)N1C(=O)c2ccncc2C1=O`, the z-score is reported as 0.139.
For `N#C/C(=C\c1ccccc1Cl)C(=O)NC(=O)Oc1ccccc1`, the z-score was -0.549.
In the case of `O=C(O)CCCNS(=O)(=O)c1ccccc1`, the z-score is reported as -0.277.
With `CCOC(=O)C1(C)C=C(Nc2ccc(O)cc2)C(=O)N1c1ccc(O)cc1` (centres undefined) the z-score was 0.153.
In the case of `CC(=O)c1cc2c(cc1NC(=O)CSc1nc3ccccc3o1)OCO2`, the z-score is reported as -0.795.
Compound `COc1ccccc1N(CC(O)CN(c1ccccc1)S(C)(=O)=O)S(=O)(=O)c1ccccc1` (centres undefined) has a z-score of -0.251.
`COc1cc(/C=N/Nc2ncc(C(F)(F)F)cc2Cl)cc(OC)c1OC` was tested, and the z-score was -0.231.
`CN1CCC(NC(=O)c2cccs2)CC1` was tested, and the z-score was -0.179.
`Cc1ccc(NC(=O)C/C(N)=N/O)cc1C` was tested, and the z-score was -0.153.
`COc1ccc(C2/C(=C(/O)c3ccccc3)C(=O)C(=O)N2CC(C)O)c(OC)c1` (centres undefined) was tested, and the z-score was 0.612.
`CC1CCCCN1S(=O)(=O)c1cccc2cccnc12` (centres undefined) showed a z-score of 0.804.
In the case of `CC(C)OC(=O)/C(=C/c1cccnc1)NC(=O)c1ccccc1`, the z-score is reported as active: 3.22.
In the case of `CS/C(=N/S(=O)(=O)c1ccc(C)cc1)c1ccccc1`, the z-score is reported as -0.501.
In the case of `CC1CN=C(c2cccn2Cc2ccc(F)cc2Cl)O1` (centres undefined), the z-score is reported as 0.261.
Compound `CC(C)(C)SCCNC(=O)CN(c1ccc(F)cc1)S(C)(=O)=O` has a z-score of -0.273.
`Cc1ccc(NC(=S)N2CCN(C)CC2)c(C)c1` was tested, and the z-score was -0.125.
In the case of `CCCC(=O)Nc1sc2c(c1C(=O)OC)C(C(=O)OC)CC2` (centres undefined), the z-score is reported as -0.0731.
For `COc1cc(NC(=O)CSc2ccc3c(c2)OCCO3)cc(OC)c1OC`, the z-score was -0.0209.
Compound `C/C=C(\C)CN1CCN(c2cc(C)ccc2C)CC1` has a z-score of -0.121.
Compound `COc1ccc(NC(=S)NCC2CCCO2)c(OC)c1` (centres undefined) has a z-score of -0.211.
`COc1cccc(NC(=O)COc2ccc(C)cc2)c1` was tested, and the z-score was active: 4.04.
`O=C(C1CCCN(S(=O)(=O)c2cccs2)C1)N1CCN(C2CCCCC2)CC1` (centres undefined) was tested, and the z-score was -0.311.
`C=CCSc1nnc2c(n1)OC=Nc1ccccc1-2` showed a z-score of -0.345.
With `Cn1c(=O)c2c(nc(NC(Cc3ccccc3)C(=O)O)n2Cc2ccccc2)n(C)c1=O` (centres undefined) the z-score was 0.199.
`Cc1cc(C)cc(NC(=O)c2ccccc2CC[N+](=O)[O-])c1` gave a z-score of -0.944.
`C=CCn1c(SCc2ccc(C#N)cc2)nnc1-c1ccc(C)cc1` was tested, and the z-score was -0.503.
For `CCCCCn1c(=O)[nH]c2cc(C(=O)NCCN3CCOCC3)ccc2c1=O`, the z-score was 0.542.
`OC(COc1ccccc1)CN1CCOCC1` (centres undefined) showed a z-score of -0.127.
In the case of `O=C(CSc1nc(Nc2ccccc2)nc(N2CCOCC2)n1)N1CCc2ccccc21`, the z-score is reported as 0.159.
In the case of `Cc1cc(C)nc(-n2cc(C(=O)c3cc(F)ccc3O)cn2)n1`, the z-score is reported as 0.0338.
With `CCc1nc(-c2ccc(OC)c(OC)c2)cc2cc(OC)c(OC)cc12` the z-score was -0.0908.
For `Cc1cc(=O)[nH]c(N/N=C/c2c(O)n(-c3ccccc3)c(=O)c3ccccc23)n1`, the z-score was 0.0384.
`CNc1nc2c(c(=O)[nH]c(=O)n2C)n1CCOC` gave a z-score of 1.64.
For `CCOc1ccc(NC(=O)N(CCCN2CCOCC2)Cc2cccnc2)cc1`, the z-score was 1.17.
`O=c1c2ccccc2nc(SCc2cc([N+](=O)[O-])cc3c2OCOC3)n1-c1ccccc1` showed a z-score of -0.0105.
Work on `CC(C)CC(=O)Nc1nnc(SCC(=O)NCc2ccco2)s1` yielded a z-score of -0.153.
Work on `COc1ccc(C)cc1NC(=O)C1CCN(S(=O)(=O)c2cccc3cccnc23)CC1` yielded a z-score of -0.688.
`COc1ccc(CCC(=O)N2CCCSC2=Nc2ccc(C(C)=O)cc2)cc1` gave a z-score of -0.331.
`O=C(COC(=O)c1cc(S(=O)(=O)NCc2ccccc2)ccc1O)NCc1ccccc1` gave a z-score of -0.115.
Compound `Cc1ccc(S(=O)(=O)Oc2ccc(C(c3c(C)[nH][nH]c3=O)c3c(C)[nH][nH]c3=O)cc2)cc1` has a z-score of 0.0509.
For `CCCCn1c(=N)n(CC(=O)C(C)(C)C)c2ccccc21`, the z-score was -0.41.
`O=c1c(O)c(-c2ccc3c(c2)OCO3)oc2ccccc12` gave a z-score of -0.981.
`C=CCn1c(SCn2nnc3ccccc3c2=O)nnc1-c1ccc(Br)cc1` gave a z-score of 0.482.
In the case of `Cc1c(Cl)cccc1NC(=O)CCC(=O)N/N=C/c1ccc[nH]1`, the z-score is reported as -0.389.
`CS(=O)(=O)N1N=C(c2ccco2)CC1c1ccc(Cl)cc1` (centres undefined) was tested, and the z-score was -0.15.
`Cc1ccc(S(=O)(=O)N2C(=O)CCC2C(=O)Nc2ccc3c(c2)OCCO3)cc1` (centres undefined) gave a z-score of -0.271.
In the case of `Cc1ccc(NC(=O)Cc2nc(CSc3nnc(-c4ccc5c(c4)OCO5)o3)cs2)cc1`, the z-score is reported as -1.48.
Compound `Cc1cc(=O)oc(C)c1C(=O)O` has a z-score of -0.065.
Compound `c1ccc(-c2noc(-c3ccncc3)n2)nc1` has a z-score of -0.0501.
For `CCC(C)c1ccc(NC(=O)CSc2nncn2N)cc1` (centres undefined), the z-score was 0.0816.
Work on `COc1ccccc1CN(C(=O)Cc1cccs1)C(C(=O)NC1CCCC1)c1ccncc1` (centres undefined) yielded a z-score of -0.243.
With `CCCCn1c(-c2nn(C)c(C)c2Cl)n[nH]c1=S` the z-score was 0.951.
Compound `Cc1ccc2cc(C)c3nnc(SCC(=O)Nc4nc5c(s4)CCCC5)n3c2c1` has a z-score of -0.93.
For `CCCCCCCn1c(=N)n(CC(=O)c2ccco2)c2ccccc21`, the z-score was active: 4.65.
In the case of `CN1C(=O)CC(N2CCN(Cc3ccc(Cl)cc3)CC2)C1=O` (centres undefined), the z-score is reported as -0.141.
For `CCOP(=O)(OCC)C(NC(=O)Nc1ccc(Cl)c(Cl)c1)C(N)=O` (centres undefined), the z-score was -0.0318.
`Cc1ccc(N2C(=O)CC(Sc3ncn[nH]3)C2=O)cc1C` (centres undefined) showed a z-score of -0.22.
Work on `CCCn1nc(C(=O)Nc2cc(C(=O)OC)ccc2C)c2ccccc2c1=O` yielded a z-score of 0.256.
`CCNC(=S)NCc1ccc2c(c1)OCO2` gave a z-score of -0.0745.
In the case of `CCCCc1nc(NCC2CCCO2)c(C#N)c2c1COC(C)(C)C2` (centres undefined), the z-score is reported as -0.551.
For `CCS(=O)(=O)Nc1ccc(C(=O)OC)cc1`, the z-score was 0.0196.
`O=c1c(Cc2ccccc2)c(O)nc2n1CCCS2` was tested, and the z-score was -0.34.
For `C=CCn1c(C(CCC(C)C)CC(C)(C)O)n[nH]c1=S` (centres undefined), the z-score was 0.183.
For `Cc1ccc(C)n1-c1ccccc1N`, the z-score was -0.208.
`Cc1nn(Cc2cccc(C(=O)NC(C)c3ccc(C(C)(C)C)cc3)c2)c(C)c1[N+](=O)[O-]` (centres undefined) showed a z-score of -0.0799.
`COc1cc(CC(=O)OCC(=O)Nc2ccc3c(c2)OCCO3)cc(OC)c1OC` showed a z-score of -0.207.
In the case of `O=c1[nH][nH]c(C(F)(F)F)c1C=Nc1ccccc1`, the z-score is reported as 0.126.
Work on `CCn1cc(C(=O)NCc2ccco2)c2cc(OC)c(OC)cc2c1=O` yielded a z-score of 0.183.
In the case of `CCOC(=O)c1cc2occc2n1CC(=O)NCCOC`, the z-score is reported as 0.141.
Work on `O=C(Nc1nc2ccc(Cl)cc2s1)C1CCCO1` (centres undefined) yielded a z-score of -0.864.
In the case of `CCN(CC)S(=O)(=O)c1ccc2nnn(OCC(=O)Nc3cccc(C#N)c3)c2c1`, the z-score is reported as -0.793.
`Cc1cc(C)nc(N2CCN(CC(=O)NCc3ccccc3)CC2)n1` showed a z-score of -0.195.
In the case of `COc1ccc(OCCSc2nnc(-c3ccccc3)n2N)cc1`, the z-score is reported as 0.144.
Work on `CCN(C(=O)Cc1cccs1)c1nnc(-c2cc(OC)c(OC)c(OC)c2)s1` yielded a z-score of -0.44.
With `CC(=O)O/N=C(/c1nonc1N)N1CCN(c2ccc([N+](=O)[O-])cc2Cl)CC1` the z-score was -0.222.
`COc1ccc(N(CC(=O)Nc2cc(C)ccc2OC)S(=O)(=O)c2c(C)noc2C)cc1` showed a z-score of -0.432.
With `Cn1c(SCc2n[nH]c(=S)o2)nnc1-c1ccccc1` the z-score was -0.0285.
`CC1(C)Cc2cccc(OCC(O)CNCc3ccccn3)c2O1` (centres undefined) was tested, and the z-score was 0.739.
In the case of `CC(C)NC(=O)CSc1nnc(COc2ccccc2Cl)o1`, the z-score is reported as -0.386.
Work on `CCC(=O)c1ccc(OCC(O)CN2CCOCC2)cc1` (centres undefined) yielded a z-score of 0.0417.
For `O=C(NCCSCc1ccccc1)c1ccc(F)cc1`, the z-score was 0.0217.
Compound `O=C(NCc1ccc2c(c1)OCO2)c1cccnc1` has a z-score of -0.202.
In the case of `COC(=O)/C(=C1\Oc2ccc(C(C)(C)C)cc2S1)C(F)(F)F`, the z-score is reported as 0.161.
Work on `O=C(Cc1cccs1)NCc1ccc2c(c1)OCO2` yielded a z-score of -0.488.
Compound `Cc1ccc(Cn2c(CN(C)Cc3ccccc3)nc3c2c(=O)n(C)c(=O)n3C)cc1` has a z-score of -1.01.
In the case of `O=c1c2ccccc2nc2n1CCCCC2`, the z-score is reported as 0.0912.
In the case of `CC(=O)OC1COC(n2ccc3ccccc32)C(OC(C)=O)C1OC(C)=O` (centres undefined), the z-score is reported as -0.05.
`Cc1nn(Cc2c(F)c(F)c(F)c(F)c2F)c(C)c1NC(=O)c1ccc(COc2cc(Cl)ccc2Cl)cc1` was tested, and the z-score was -0.32.
`CCNC(=S)Nc1cc(C)ccn1` gave a z-score of 0.1.
`c1ccc(Cc2cc(-c3ccccc3)on2)cc1` showed a z-score of 0.0389.
With `O=C(COC(=O)Cn1c(C(F)(F)F)nc2ccccc21)Nc1ccc2c(c1)OCCO2` the z-score was -0.513.
`CCn1c(=N)n(CC(O)c2ccco2)c2ccccc21` (centres undefined) was tested, and the z-score was 0.425.
Compound `C=CC[n+]1c(-c2ccc(OC)cc2)csc1NNC(=O)Nc1ccccc1` has a z-score of 0.444.
With `O=C(Nc1ccccc1Cl)c1ccc(COc2ccc3c(c2)CCC3)cc1` the z-score was 0.941.
Compound `CCN(Cc1nc2ccccc2c(=O)[nH]1)Cc1nc2cc(OC)c(OC)cc2c(=O)[nH]1` has a z-score of -0.0675.
In the case of `CSc1ccccc1N=CC1=C(O)CC(C)(C)CC1=O`, the z-score is reported as -0.437.
For `CCCN1CCCc2cc(CN(CCCN3CCOCC3)C(=O)Nc3ccc(OCC)cc3)ccc21`, the z-score was 0.000776.
